This is one part of the list. The energies were worked out here from pooled read counts, against the library average; single values are noisy.

This experiment has as its target T1, Pho4 (S. cerevisiae) (UniProt P07270).
T1 sequence: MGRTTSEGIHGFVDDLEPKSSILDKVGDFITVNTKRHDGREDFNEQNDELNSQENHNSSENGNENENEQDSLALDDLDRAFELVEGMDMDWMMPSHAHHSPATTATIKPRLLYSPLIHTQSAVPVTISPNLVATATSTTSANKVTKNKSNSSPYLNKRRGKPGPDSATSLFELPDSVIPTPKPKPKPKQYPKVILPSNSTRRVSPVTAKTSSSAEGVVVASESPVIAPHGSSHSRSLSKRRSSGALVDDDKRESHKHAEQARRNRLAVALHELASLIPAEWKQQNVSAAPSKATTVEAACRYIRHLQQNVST
As to the kind of experiment: relative binding free energy (BET-seq); higher = weaker binding. The note with it: reference: library average.
Turning to TTATACACGTGTGGAA, the “relative binding free energy” value is 0.08 kcal/mol.
GGGGCCACGTGGAGAC: the “relative binding free energy” value amounted to 0.09 kcal/mol.
In the case of GTTCACACGTGTTGTG, the “relative binding free energy” value was found to be 0.02 kcal/mol.
Consider CTAGGCACGTGGTTTG, for which the “relative binding free energy” value is -0.11 kcal/mol.
Regarding TTTAACACGTGAGATT, the “relative binding free energy” value was found to be 0.24 kcal/mol.
Under ATCGTCACGTGATAGT stands 0.14 kcal/mol; under TTGATCACGTGTTTAT, 0.12 kcal/mol; under TTCATCACGTGAGCGT, 0.4 kcal/mol.
For the sequence AGGTACACGTGTGGAC, the “relative binding free energy” value was determined as 0.11 kcal/mol.
Under GGACGCACGTGTGTTT stands -0.06 kcal/mol; under TAGAGCACGTGGAGAG, 0.03 kcal/mol.
Under CTGAGCACGTGAGGCG stands 0.19 kcal/mol; under GTGAGCACGTGGATAT, -0.02 kcal/mol; under TTAGGCACGTGCGGCG, -0.2 kcal/mol.
Under TTAACCACGTGAAGGG stands 0.19 kcal/mol.
As for GAGTACACGTGTCTTT, the “relative binding free energy” value turned out to be 0.2 kcal/mol.
Consider AACTTCACGTGGATGT, for which the “relative binding free energy” value came to 0.2 kcal/mol.
Under GCAGTCACGTGTGTGT stands 0.13 kcal/mol; under TCTTTCACGTGGTGCG, 0.13 kcal/mol.
Consider AATTTCACGTGGGGTA, for which the “relative binding free energy” value came to 0.18 kcal/mol.
Under GGATGCACGTGGAGCT stands 0.05 kcal/mol.
Under GGATCCACGTGGGGGG stands -0.07 kcal/mol.
For CTCGGCACGTGTCGGA, the “relative binding free energy” value stood at 0.28 kcal/mol.
Under GGGGGCACGTGTTCGT stands -0.17 kcal/mol.
Under GGACGCACGTGGGGCG stands -0.08 kcal/mol; under TGTGTCACGTGCGCAA, -0.05 kcal/mol; under GGATACACGTGCGGGG, -0.04 kcal/mol.
Under TTGGACACGTGGGGTA stands -0.03 kcal/mol.
As to TCTAGCACGTGTGGGA, the “relative binding free energy” value is -0.06 kcal/mol.
Under ATTAACACGTGAGAGG stands 0.33 kcal/mol.
Regarding AAATGCACGTGTTGTT, the “relative binding free energy” value was 0.04 kcal/mol.
Under TGCCTCACGTGGGTTA stands 0.02 kcal/mol; under TTAAGCACGTGGATAT, -0.04 kcal/mol; under TGTTGCACGTGTTAAA, 0.01 kcal/mol.
On to CATGACACGTGTTGGG, for which the “relative binding free energy” value turned out to be 0.05 kcal/mol.
Take GGTCTCACGTGTCGGG: the “relative binding free energy” value amounted to 0.1 kcal/mol.
Under TTGGACACGTGCCGGG stands -0.04 kcal/mol.
Under TGGTGCACGTGGCCTT stands -0.1 kcal/mol.
Turning to AACATCACGTGGTGTG, the “relative binding free energy” value is 0.16 kcal/mol.
Under TGAAACACGTGTCGGG stands 0.03 kcal/mol.
Under GGTTGCACGTGACTTG stands 0.17 kcal/mol.
Under GCGTGCACGTGGCTTG stands 0.03 kcal/mol; under AGTGGCACGTGGGCAG, -0.19 kcal/mol; under AGGACCACGTGGATGT, 0.06 kcal/mol.
On to GTATGCACGTGAGGAT, for which the “relative binding free energy” value turned out to be 0.21 kcal/mol.
As for GAGTGCACGTGGAATA, the “relative binding free energy” value came to 0.11 kcal/mol.
Consider GTGTACACGTGCGGGG, for which the “relative binding free energy” value is 0.13 kcal/mol.
Turning to GCTTACACGTGGTGGT, the “relative binding free energy” value was 0.05 kcal/mol.
For the sequence GCCGGCACGTGGTGAG, the “relative binding free energy” value is -0.07 kcal/mol.
Consider GATAGCACGTGTGGTG, for which the “relative binding free energy” value was -0.1 kcal/mol.
As for GGCTGCACGTGGGGGA, the “relative binding free energy” value was -0.15 kcal/mol.
Under AGGTACACGTGCGTAT stands 0.01 kcal/mol; under TTAGGCACGTGTTAGA, 0.06 kcal/mol; under GAGGACACGTGTGATT, 0.22 kcal/mol.
With CGGGTCACGTGTGTGA, the “relative binding free energy” value turned out to be 0.12 kcal/mol.
Consider TGCATCACGTGGTAGA, for which the “relative binding free energy” value was 0.12 kcal/mol.
Under ATAAGCACGTGGAGGG stands -0.17 kcal/mol; under AGTGACACGTGAGATG, 0.25 kcal/mol.
Under TGTGACACGTGAGGAC stands 0.22 kcal/mol; under AGATTCACGTGCGTTG, 0.2 kcal/mol; under ATTGACACGTGGATGA, 0 kcal/mol.
Under CGGGTCACGTGAACGT stands 0.4 kcal/mol; under TGTATCACGTGTCATA, 0.17 kcal/mol.

The record behind these values is the BET-seq Pho4 binding data (Le et al. 2018).
